# The supplement of paper PMC4166925
# ± gives the standard deviation of the averaged measurements. The full ranking holds about 33,000 sequences; the median of “E-score (dimensionless, -0.5 to 0.5)” is about -0.046, and the highest 2% start at about 0.36. The list shows a part of the results.
# System: T1, SpTbr T-box DNA-binding domain (GST fusion)
# T1 sequence: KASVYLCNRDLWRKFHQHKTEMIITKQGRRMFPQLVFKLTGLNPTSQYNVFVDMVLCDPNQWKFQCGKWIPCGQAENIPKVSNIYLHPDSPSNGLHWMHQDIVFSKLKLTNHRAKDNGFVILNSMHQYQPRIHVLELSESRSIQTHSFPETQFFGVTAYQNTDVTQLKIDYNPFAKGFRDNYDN
# Experiment: PBM E-score of 8-mer (E-score (dimensionless, -0.5 to 0.5)); Tbr is Tbrain of the sea star Patiria miniata (Pm) or the sea urchin Strongylocentrotus purpuratus (Sp); higher = stronger binding preference; most listed sequences are background and not binding sites
# Conditions: the construct has about 5 more residues each side
# Summary of the method: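 GST-fused Tbr T-box DNA-binding domains (the whole T-box plus about five flanking residues) were expressed in BL21 E. coli at 20 °C and purified by glutathione affinity chromatography. Universal Agilent oligonucleotide arrays were made double-stranded by primer extension, incubated with 200 nM protein in PBS (pH 7.5), then scanned and quantified. Every ungapped 8-mer was scored from probe intensities. The Universal PBM Analysis Suite gave each word an enrichment E-score, averaged over duplicate arrays.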
row,Sequence,PBM E-score of 8-mer
1,TAGAGCAA,-0.253 ± 0.0093
2,ATTCGAAG,-0.0382 ± 0.12
3,AGCTAAAA,0.0957 ± 0.021
4,ATGGCATG,0.06 ± 0.077
5,TGATCGAA,-0.00359 ± 0.012
6,GTCGGCGA,0.137 ± 0.014
7,CAGCTCAG,0.0773 ± 0.05
8,AATGGTGT,0.316 ± 0.036
9,ATATTTCC,-0.1629 ± 0.0002
10,CCTGTCCC,-0.0493 ± 0.082
11,TATGCCGA,-0.213 ± 0.032
12,CGTGTCCA,0.0571 ± 0.015
13,AGAACCTG,-0.00272 ± 0.02
14,ATGTCGTA,-0.0703 ± 0.05
15,GATTAAAC,0.0727 ± 0.084
16,TAACGATA,0.00856 ± 0.011
17,AGGGCGGA,-0.0328 ± 0.0044
18,ACCAAGTG,0.199 ± 0.021
19,AGGGACTC,-0.0519 ± 0.037
20,CCACTTAA,0.0113 ± 0.00066
21,ACAGTTGC,0.2768 ± 0.00088
22,ATTTACCA,-0.133 ± 0.039
23,CCGCTTCC,0.0652 ± 0.037
24,AGGTGCTC,0.012 ± 0.081
25,AAGAGATC,0.028 ± 0.024

row,Sequence,PBM E-score of 8-mer
1,CATCTACG,-0.134 ± 0.057
2,AGCCCCAC,0.0849 ± 0.074
3,AAACTCGC,0.167 ± 0.0056
4,GGGCTGGA,-0.388 ± 0.041
5,CGTTCAAG,-0.167 ± 0.0076
6,ACAGTGGC,0.0158 ± 0.0033
7,GCAGAGGA,-0.273 ± 0.021
8,TACCTCGA,-0.00303 ± 0.087
9,CAGTAACG,0.126 ± 0.048
10,TCCCATAA,-0.16 ± 0.022
11,AACACAGT,0.274 ± 0.042
12,GGATACCA,-0.161 ± 0.08
13,GATACCGA,-0.127 ± 0.0088
14,GAGAGTAC,-0.0949 ± 0.017
15,AGGGAGTC,-0.00783 ± 0.071
16,AAGGTCGT,-0.199 ± 0.0057
17,AAAGCCTC,0.168 ± 0.024
18,AGTGGAGC,-0.0127 ± 0.11
19,ATAAATCA,0.0094 ± 0.1
20,CCGGTGAA,-0.0867 ± 0.0072
21,TATGCCAA,0.0137 ± 0.0024
22,CGGAGCTA,-0.15 ± 0.1
23,AGGTGGCA,0.432 ± 0.015
24,CTACGGAA,-0.182 ± 0.049
25,AACTTGAC,0.178 ± 0.0071

row,Sequence,PBM E-score of 8-mer
1,CCCTGCAC,0.0307 ± 0.017
2,GCATTAGA,-0.353 ± 0.067
3,GCGCCGAC,-0.00125 ± 0.061
4,GCCTGTTA,-0.044 ± 0.03
5,GGCAACCA,0.000925 ± 0.0078
6,AGATGAAG,0.0432 ± 0.049
7,ACTCATGG,0.0349 ± 0.013
8,AGGGGCTG,-0.214 ± 0.027
9,ATTTCTTC,0.11 ± 0.029
10,CCATTGCA,-0.0399 ± 0.012
11,CCGTAGCC,-0.145 ± 0.04
12,ACTTACTG,-0.00968 ± 0.024
13,CAATTGAC,0.231 ± 0.0041
14,CTCGAACA,0.00677 ± 0.052
15,ACCGACCG,-0.127 ± 0.033
16,AGTTCTAC,-0.102 ± 0.002
17,CCACCGCC,0.0612 ± 0.044
18,ATTTGGCA,0.0982 ± 0.12
19,GAGACTCA,-0.152 ± 0.051
20,CTGCTTAA,-0.0083 ± 0.048
21,CCAGTTAG,-0.0951 ± 0.0013
22,CTGCCCAG,-0.31 ± 0.014
23,CAGCTAAG,0.076 ± 0.039
24,CTGAAGTA,-0.116 ± 0.026
25,ACAACGTG,0.12 ± 0.027

row,Sequence,PBM E-score of 8-mer
1,CGGCAACG,0.106 ± 0.0022
2,GGCTAGAC,-0.23 ± 0.003
3,CGGTAATC,-0.0705 ± 0.081
4,CTATCCTA,-0.171 ± 0.0083
5,ATGGTTAG,0.0545 ± 0.053
6,CTCCACAC,0.37 ± 0.0083
7,GCAAATCC,-0.203 ± 0.038
8,AGCATCCA,-0.228 ± 0.072
9,CTGCAAAG,0.0277 ± 0.049
10,GGGGAGCA,-0.25 ± 0.0084
11,AACCGGAG,0.0115 ± 0.044
12,GCCGCCAC,0.249 ± 0.035
13,TAAGCGGA,-0.0158 ± 0.095
14,CGTTAGCC,0.0205 ± 0.017
15,CCCAACCC,-0.144 ± 0.069
16,CAGAACTA,-0.256 ± 0.026
17,ACGCCACT,0.285 ± 0.013
18,AGCTACCG,-0.0774 ± 0.044
19,AGTGTACG,0.0187 ± 0.04
20,ATCCAATA,-0.229 ± 0.046
21,CCGTTCTC,0.129 ± 0.027
22,AAATAGGA,-0.278 ± 0.04
23,AACTGCTG,0.117 ± 0.037
24,AGAGGGTA,-0.113 ± 0.012
25,CGCAGCCG,0.023 ± 0.017

row,Sequence,PBM E-score of 8-mer
1,GATAATTA,0.14 ± 0.063
2,CACTGACG,0.247 ± 0.027
3,CGCTCAAA,0.00388 ± 0.065
4,GTCACAAA,0.125 ± 0.032
5,AATTCTCT,-0.273 ± 0.058
6,CCCCGGAG,-0.296 ± 0.069
7,CAGTTTGA,-0.0119 ± 0.00066
8,GCCGCTCC,-0.197 ± 0.066
9,ACACCTGT,0.4669 ± 0.0038
10,CGCTGCAA,0.0092 ± 0.027
11,AAGGCGCT,0.306 ± 0.035
12,CGCTGACG,0.15 ± 0.0052
13,TATGTGCA,-0.0789 ± 0.074
14,TATAAACA,0.012 ± 0.057
15,GTCTGCCA,-0.0807 ± 0.028
16,ACGAAACA,0.0313 ± 0.035
17,GTCTCCGA,-0.198 ± 0.069
18,ACTGGCCA,0.0049 ± 0.016
19,AAATTAAA,-0.26 ± 0.096
20,AATCTGCC,-0.194 ± 0.023
21,GCATCAGA,-0.28455 ± 7.1e-05
22,GTACCCTA,-0.032 ± 0.028
23,AACGTCTT,-0.0988 ± 0.032
24,AATTGGCT,-0.157 ± 0.0044
25,CGTTTAAC,0.0414 ± 0.039

row,Sequence,PBM E-score of 8-mer
1,ACTAAACT,-0.241 ± 0.017
2,CGAGCTAG,0.0147 ± 0.082
3,ATGACAAA,-0.0554 ± 0.028
4,CCTGAGAG,0.182 ± 0.052
5,AAGCCACC,-0.196 ± 0.066
6,ACCCGTTC,0.0673 ± 0.036
7,ATCGCGAC,0.271 ± 0.036
8,AGTTCGCA,0.3728 ± 0.00053
9,AACCGCAT,-0.168 ± 0.022
10,CCCAACGG,-0.055 ± 0.1
11,ATCTAACC,-0.0868 ± 0.043
12,AGAGGACA,0.0332 ± 0.0054
13,CGAAGGCG,0.27349 ± 5.7e-05
14,GTGTCATA,0.404 ± 0.022
15,GACAGGCC,-0.1 ± 0.072
16,GCGGCAGA,-0.0967 ± 0.032
17,CGAAAGGC,-0.0702 ± 0.065
18,AAAATTGA,-0.0654 ± 0.052
19,AGTTTGCC,-0.04 ± 0.0086
20,CCCTACCA,-0.0683 ± 0.08
21,TGGTCTAA,-0.0415 ± 0.1
22,CTACTGTA,-0.111 ± 0.05
23,CCGAGCCC,-0.184 ± 0.087
24,CGCCGGTC,0.0265 ± 0.055
25,ATAGTTAA,0.0934 ± 0.035

row,Sequence,PBM E-score of 8-mer
1,GATTGTGA,0.198 ± 0.013
2,GACAGCTC,0.274 ± 0.021
3,GTTGAGCA,-0.137 ± 0.031
4,GAAAGGAC,-0.0836 ± 0.079
5,CGAAGCGC,0.0491 ± 0.058
6,TACTCTCA,0.002 ± 0.057
7,GGGACATA,-0.113 ± 0.021
8,CCTTGTCG,0.115 ± 0.099
9,ATCTCATG,0.015 ± 0.0085
10,AGGGCTCC,-0.314 ± 0.073
11,AACTCAAG,-0.116 ± 0.075
12,AGTTGGTA,-0.108 ± 0.069
13,ACTTGGCG,0.22 ± 0.038
14,GCGACCCC,0.114 ± 0.0081
15,CGAAAGCG,0.112 ± 0.014
16,AATGGAAC,-0.0265 ± 0.021
17,AAGAATAG,0.0775 ± 0.017
18,ACCAGAGC,-0.274 ± 0.033
19,GTCGTATA,-0.105 ± 0.081
20,AAGGAGCT,-0.233 ± 0.02
21,CTACATGC,-0.125 ± 0.0097
22,ACTTGGAA,-0.116 ± 0.055
